Source: PubChem BioAssay AID1347070 (National Center for Advancing Translational Sciences (NCATS), 2019)
Screen size: about 94,000 compounds; about 20 (0.02%) were called active. The shares of active, inactive and inconclusive entries below differ from those in the screen. Calls come from the whole dose curve; as a rule, active = well fitted activation curve with a large enough effect; inconclusive = small, poorly fitted or top-dose-only effect; inactive = flat fitted curve, though single readings scatter. Potencies of inconclusive entries are left out as doubtful fits.

Experiment: qHTS of alpha-syn Inhibitors: NCGC Sytravon Library Screen; for growth rescue (activation): 0% is about no effect
Conditions: S. cerevisiae alpha-synuclein toxicity rescue, BacTiter-Glo growth, 24 h; growth rescue (activation): at 46.1 µM (top of the series)
Procedure, shortened: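 Growth restoration measured by BacTiter-Glo luminescence after 24 hr at 30 deg C; alpha-synuclein yeast, raffinose-pregrown to mid-log, were added at OD600=0.02 in galactose medium onto pinned compounds.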
Potency is the fitted concentration of half-maximal effect; tags give direction and shape of the fitted curve.

SMILES | growth rescue (activation) | Potency
CCCn1nnnc1NC(=O)c1cc(Cl)ccc1Cl | inconclusive: 30.5% [activator] | 
CCOC(=O)c1cccc(NS(=O)(=O)c2ccc(-c3cnc(C4CC4)o3)cc2)c1 |  | inconclusive [activator, single point]
CCC(=O)N1CCc2cc(Br)cc(S(=O)(=O)CCC(=O)N3CCN(c4ccccc4F)CC3)c21 | inactive: -1.1% | 
O=C(NC1CCCC1)c1cc(Nc2cccc(C(F)(F)F)c2)nc2ccccc12 | inactive: -5.82% | 
O=C(O)c1cccc(N2C(=O)CSC2=S)c1 | inconclusive: 58.4% [activator] | 
Cc1ccc(C)n1-c1nnc(N2CCCC(C(=O)NCc3cccc(F)c3)C2)s1 (stereo not given) | inactive: -0.32% | 
CCCCN1C(=O)C(O)(CC(=O)c2ccc(C(C)(C)C)cc2)c2ccccc21 (stereo not given) |  | inconclusive [activator, single point]
Cc1ccc(NC(=O)c2cnn3c2NC(c2ccccc2)=CC3c2ccccc2)cc1 (stereo not given) |  | inconclusive [activator, single point]
Cc1c(Cl)cccc1NS(=O)(=O)c1ccc(-c2cnc(C3CC3)o2)cc1 |  | inconclusive [activator, single point]
Cc1ccc2ncc(C(=O)c3ccc(C)c(C)c3)c(S(=O)(=O)c3ccc(F)cc3)c2c1 | inactive: 4.99% | 
Cc1ccc(S(=O)(=O)Nc2ccc(N3CCOCC3)cc2)cc1[N+](=O)[O-] | inconclusive: 44.9% [activator] | 
Cc1oc(-c2cccc(Cl)c2)nc1CS(=O)(=O)CC(=O)NC(C)CCc1ccccc1 (stereo not given) |  | inconclusive [activator, single point]
O=C(CCSCc1cccc(Cl)c1)N1CCN(c2ccc(Cl)cc2)CC1 |  | inconclusive [activator, single point]
COc1ccc(S(=O)(=O)Nc2ccc3oc4c(c3c2)CCCC4)cc1 |  | inconclusive [activator, single point]
CCOC(=O)c1sc2ccccc2c1S(=O)(=O)Nc1ccc(C(C)=O)cc1 |  | inconclusive [activator, single point]
COc1cc(CN2CCN(S(=O)(=O)c3ccc(NC(C)=O)cc3)CC2)cc(OC)c1OC | inactive: -7.13% | 
COc1ccccc1NC(=O)c1c(NCc2ccc(C)o2)sc2c1CCCCC2 |  | inconclusive [activator, single point]
CN1CCc2c(sc3c2C(=O)NC(c2ccc(C(C)(C)C)cc2)N3)C1 (stereo not given) | inactive: 3.38% | 
COc1ccc2nc(N(Cc3cccnc3)C(=O)Cc3ccccc3)sc2c1 |  | inconclusive [activator, single point]
COc1cc(S(=O)(=O)NCCc2c(C)[nH]c3ccccc23)c(C)cc1C |  | inconclusive [activator, single point]
COc1ccc(CCNC(=O)CCn2c(=O)c3ccccc3n(Cc3ccccc3)c2=O)cc1OC |  | inconclusive [activator, single point]
Cc1oc(-c2ccccc2Cl)nc1CS(=O)(=O)CC(=O)NCc1ccc(F)cc1 | inactive: -0.465% | 
COc1ccc(C)c2sc(N3CCN(C(=O)c4cccc(F)c4)CC3)nc12 |  | inconclusive [activator, single point]

SMILES | growth rescue (activation) | Potency
COc1ccc(CCNC(=O)c2nc(-c3ccc(Cl)cc3)n3c2CCCCC3)c(OC)c1 |  | inconclusive [activator, single point]
O=C(CN1C(=O)NC2(CCc3ccccc32)C1=O)NC1CCCCC1 (stereo not given) | inactive: -10.1% | 
Cc1cc(S(=O)(=O)C(CNC(=O)c2ccc(F)c(F)c2)c2cccs2)ccc1F (stereo not given) | inactive: 1.22% | 
Cc1ccccc1CSc1nnc2[nH]c(=O)cc(-c3ccccc3)n12 | inactive: 3.6% | 
CCC(C(=O)NCCc1ccccc1)n1nc(C)c2sc3ccccc3c2c1=O (stereo not given) |  | inconclusive [activator, partial curve, poor fit]
COc1ccc(OC)c(NC(=O)C2Cc3ccccc3CN2S(=O)(=O)c2ccc(F)cc2)c1 (stereo not given) |  | inconclusive [activator, partial curve]
COc1cccc(N2CC(C(=O)NCc3n[nH]c(=O)c4ccccc34)CC2=O)c1 (stereo not given) | inactive: 3.61% | 
O=S(=O)(c1ccc(Cl)cc1)c1nc(-c2cccs2)oc1SCc1ccc(F)cc1 | inactive: 5.45% | 
CCCCOc1ccc(Cn2c(=O)sc3ccccc32)cc1OC |  | inconclusive [activator, single point]
COc1ccc(NC(=O)Cn2c(=O)oc3cc(S(=O)(=O)N4CCCCC4C)ccc32)cc1 (stereo not given) | inactive: 0.51% | 
Oc1ccc(O)c(C=NNC(=S)NC2CC3CC2C2C=CCC32)c1 (stereo not given) | inconclusive: 49.9% [activator] | 
CCOc1ccc(N2CC(c3nc4ccccc4n3CCCOc3ccccc3OC)CC2=O)cc1 (stereo not given) | inactive: 4.66% | 
CCCCOc1ccc(C(=O)N2CC(=O)Nc3ccc(Br)cc3C2c2ccc(F)cc2)cc1 (stereo not given) | inconclusive: 31.8% [activator] | 
CCC(=O)N1CCc2cc(CNS(=O)(=O)c3c(C)cc(C)cc3C)ccc21 | inconclusive: 31.6% [activator] | 
COc1cc(OC)c(NC(=O)c2c(N3CCCC3=O)c3cc(C)ccc3n2C)cc1Cl | inactive: -4.2% | 
O=c1c2cc(Cl)ccc2nc(-c2ccccc2)n1O | inconclusive: 66.9% [activator] | 
CCc1ccc(NS(=O)(=O)c2ccc(-c3cc(C)no3)cc2)cc1 |  | inconclusive [activator, single point]
COc1ccc([C@H]2N[C@]3(CCCN(Cc4ccc(Cl)cc4)C3=O)[C@H]3C(=O)N(Cc4ccccc4)C(=O)[C@@H]23)cc1 | inconclusive: 53.9% [activator] | 
CC1=Nc2cc(C(=O)NCc3ccccc3Cl)ccc2Sc2c(C)ccc(C)c21 | inactive: 3.91% | 
O=C(NCCC1=CCCCC1)c1ccc2c(c1)N(Cc1cccc(Cl)c1)C(=O)c1ccccc1S2=O (stereo not given) | inactive: 8.86% | 
CCn1cc(CCC(=O)NCc2ccccc2OC)c2ccccc21 |  | inconclusive [activator, single point]
CCCCCOc1c(Cl)cc(C(=O)N(Cc2ccc(C)o2)C2CCS(=O)(=O)C2)cc1Cl (stereo not given) |  | inconclusive [activator, single point]
